Test results taken from the supplement of paper PMC9446081.
The campaign covered roughly 39,000 compounds. About 220 (0.56%) showed activity. The list shows a part of the results.

Tested on: Escherichia coli K-12 BW25113
Assay: relative growth (OD600 normalised to plate interquartile mean) (fraction); higher = less growth inhibition, active = 0.2 or less
Conditions: 50 µM; LB; incubation time: overnight (16-24 h)
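Note: static incubation at 37 °C against the wild-type strain, values averaged over two biological replicates.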

Row | Structure (SMILES) | relative growth
1 | COc1ccc2c(O[C@H]3CCCC[C@@H]3OC)nccc2c1-n1ccnc1-c1c[nH]c2c(N)c(F)cc(C#N)c12 | inactive: 0.997
2 | Cc1noc(C)c1NC(=O)N(C)C[C@H]1Oc2c(NC(=O)C3CC3)cccc2C(=O)N([C@@H](C)CO)C[C@H]1C | inactive: 1.03
3 | CO[C@@H]1CN(C)C(=O)c2ccc(NC(=O)Nc3ccccc3F)cc2OC[C@@H](C)N(C(=O)Nc2ccccc2F)C[C@H]1C | inactive: 1.01
4 | Cc1ccc(Nc2c(F)cccc2Cl)c(CC(=O)O)c1 | inactive: 1.03
5 | C[C@@H]1CN([C@H](C)CO)C(=O)c2cc(NC(=O)CCC(F)(F)F)ccc2O[C@@H](C)CCCCO[C@@H]1CN(C)S(=O)(=O)c1ccc(Cl)cc1 | inactive: 1.02
6 | CCOc1nc2cccc(C(=O)O[C@@H](C)OC(=O)OC3CCCCC3)c2n1Cc1ccc(-c2ccccc2-c2nn[nH]n2)cc1 | inactive: 0.836
7 | COc1cc2c(cc1OC)C(=O)C(CC1CCN(Cc3ccccc3)CC1)C2.Cl (centres undefined) | active: 0.0489
8 | C[C@@H]1CN([C@@H](C)CO)S(=O)(=O)c2ccc(C#CC(C)(C)O)cc2O[C@@H]1CN(C)Cc1ccccc1 | inactive: 1
9 | Cc1nnc(C(C)C)n1[C@@H]1C[C@H]2CC[C@@H](C1)N2CC[C@H](NC(=O)C1CCC(F)(F)CC1)c1ccccc1 | inactive: 0.965
10 | Cc1cc(C(=O)Nc2cccc3c2O[C@H](CN(C)S(=O)(=O)c2ccccc2)[C@@H](C)CN([C@H](C)CO)C3=O)n(C)n1 | inactive: 1.01
11 | Cc1noc(C)c1S(=O)(=O)Nc1ccc2c(c1)C(=O)N([C@@H](C)CO)C[C@@H](C)[C@H](CN(C)Cc1ccc3c(c1)OCO3)O2 | inactive: 0.992
12 | O=C(C[C@H]1CC[C@@H]2[C@H](COC[C@H](O)CN2S(=O)(=O)c2ccccc2F)O1)NCc1ccccc1F | inactive: 1.01
13 | O=C(OC1Cc2c(O)cc(O)cc2OC1c1ccc(O)c(O)c1)c1cc(O)c(O)c(O)c1 (centres undefined) | inactive: 1.05
14 | C[C@H](CO)N1C[C@H](C)[C@@H](CN(C)C(=O)Nc2cccc(F)c2)Oc2ncc(C#CCN(C)C)cc2C1=O | inactive: 1.05
15 | C[C@@H]1CN([C@@H](C)CO)C(=O)c2cc(NC(=O)c3ccccc3)ccc2O[C@@H](C)CCCCO[C@@H]1CN(C)C(=O)NC1CCCCC1 | inactive: 1
16 | CN1CCc2c(c3ccccc3n2Cc2ccccc2)C1 | inactive: 0.93
17 | CNCC(O)C(O)C(O)C(O)CO.Cc1c(Nc2ncccc2C(=O)O)cccc1C(F)(F)F | inactive: 1.04
18 | COC(=O)C=Cc1cc(OC)c(OC)c(OC)c1 | inactive: 1.1
19 | COc1ccc(NC(=O)N(C)C[C@@H]2Oc3cc(Br)ccc3S(=O)(=O)N([C@H](C)CO)C[C@H]2C)cc1 | inactive: 0.993
20 | CNC[C@@H]1OCCCC[C@@H](C)Oc2ccc(NS(=O)(=O)c3cn(C)cn3)cc2C(=O)N([C@H](C)CO)C[C@@H]1C | inactive: 0.92

Row | Structure (SMILES) | relative growth
21 | COc1cc(OC)c([C@@H]2c3c(n(C)c(=O)n(C)c3=O)N=C3COC(=O)C32)cc1OC (some centres undefined) | inactive: 1.01
22 | CC(C)(C)c1nc(-c2cccc(NS(=O)(=O)c3c(F)cccc3F)c2F)c(-c2ccnc(N)n2)s1 | inactive: 0.97
23 | C[C@@H]1CN([C@@H](C)CO)C(=O)Cc2cc(NC(=O)CCCCCC(=O)Nc3ccccc3N)ccc2O[C@H]1CN(C)S(C)(=O)=O | inactive: 0.997
24 | C[C@@H]1CN([C@@H](C)CO)C(=O)c2cc(NC(=O)C3CC3)ccc2O[C@@H]1CN(C)S(=O)(=O)c1cccs1 | inactive: 0.995
25 | C[C@H](CO)N1C[C@H](C)[C@@H](CN(C)C(=O)c2cnccn2)Oc2ncc(/C=C/c3ccccc3)cc2C1=O | inactive: 1.01
26 | C[C@@H]1CN([C@H](C)CO)C(=O)c2cc(NC(=O)Nc3cccc4ccccc34)ccc2O[C@H]1CN(C)Cc1ccc(-c2ccccc2)cc1 | inactive: 0.991
27 | C[C@H]1[C@H](C)CC[C@]2(C(=O)O[C@@H]3O[C@H](CO[C@@H]4O[C@H](CO)[C@@H](O[C@@H]5O[C@@H](C)[C@H](O)[C@@H](O)[C@H]5O)[C@H](O)[C@H]4O)[C@@H](O)[C@H](O)[C@H]3O)CC[C@]3(C)C(=CC[C@@H]4[C@@]5(C)C[C@@H](O)[C@H](O)[C@@](C)(CO)[C@@H]5[C@H](O)C[C@]43C)[C@H]12 | inactive: 0.994
28 | C[C@@H]1CN([C@@H](C)CO)C(=O)c2cc(C3=CCCCC3)cnc2O[C@@H]1CN(C)C(=O)CN1CCOCC1 | inactive: 0.968
29 | C[C@@H]1CN([C@H](C)CO)C(=O)Cc2cc(NC(=O)Nc3ccc(F)cc3)ccc2O[C@@H]1CN(C)S(C)(=O)=O | inactive: 0.979
30 | Cc1ccc(S(=O)(=O)N(C)C[C@H]2OCCCC[C@@H](C)Oc3ccc(NC(=O)Nc4ccccc4)cc3C(=O)N([C@@H](C)CO)C[C@H]2C)cc1 | inactive: 1.01
31 | C[C@H](CO)N1C[C@H](C)[C@@H](CN(C)Cc2ccc(Oc3ccccc3)cc2)Oc2ccc(NC(=O)NC3CCCCC3)cc2CC1=O | inactive: 1.01
32 | Cc1ccc(S(=O)(=O)N(C)C[C@H]2Oc3ccc(NS(=O)(=O)c4ccc(F)cc4)cc3CC(=O)N([C@@H](C)CO)C[C@H]2C)cc1 | inactive: 0.981
33 | CC[C@@H](C)n1[nH]c(=O)cc1N | inactive: 0.999
34 | C[C@@H]1CCCCO[C@H](CN(C)C(=O)c2ccncc2)[C@@H](C)CN([C@@H](C)CO)C(=O)c2cc(NC(=O)NC3CCCCC3)ccc2O1 | inactive: 1.02
35 | CNC[C@@H]1Oc2ccc(NC(=O)Cn3cnnn3)cc2CC(=O)N([C@H](C)CO)C[C@H]1C | inactive: 0.995
36 | OC[C@H]1O[C@@H](O[C@@H]2[C@@H](O)[C@H](O)[C@H](O[C@@H]3[C@@H](O)[C@H](O)[C@H](O)O[C@@H]3CO)O[C@@H]2CO)[C@@H](O)[C@@H](O)[C@@H]1O | inactive: 1
37 | COc1ccc(N2CCn3c2nnc(C(=O)NCCO)c3=O)cc1 | inactive: 1.02
38 | O=C(O)Cc1ccc(CO)cc1 | inactive: 1.01
39 | CC(C)(O)/C=C/C(=O)[C@](C)(O)[C@H]1[C@H](O)C[C@@]2(C)[C@@H]3CC=C4[C@@H](C=C(O[C@@H]5O[C@H](CO)[C@@H](O)[C@H](O)[C@H]5O)C(=O)C4(C)C)[C@]3(C)C(=O)C[C@]12C | inactive: 1.01
